# Laboratory results reported in the supplement of paper PMC11417369.
# This is one part of the list.
# Test system: PfSIP2 AP2 domain 1 (GST-tagged)
# Assay: gcPBM binding intensity (ln(normalized median fluorescence intensity)); higher = stronger DNA binding
# Summary of the method: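 Binding intensity is defined as the maximum Masliner-normalised natural-log median intensity across replicate spots for either probe orientation. It was measured on an Agilent 4 × 180k array of primer-extended double-stranded 36-bp intergenic genomic probes and negative controls, to which GST-tagged P. falciparum DNA-binding domains made in E. coli were applied for 1 h in 1× PBS with 1% milk, 0.2 mg/ml BSA, 0.5% salmon testes DNA and 0.03% Triton X-100. Detection was by Alexa488 anti-GST antibody and scanning at 488 nm.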
row,Sequence,gcPBM binding intensity (ln)
1,AATAAATAAACAAATTAACACACAGAATTTTTTTTT [CACACA_site8485],6.82
2,ATAATTATAAAATAAACACACATATATATTTATATG [CACACA_site440],6.82
3,AAAAATAATGCACATATATATAATATGTATATGTAT [CACACA_negctrl_site443],7.22
4,TTTTAAACAAGACACACACACATATATATATATATA [CACACA_site925],9.63
5,TTATTGTAAATATATGCATGTGCAAAATGAAAAAAA [TGCATGCA_site399],7.97
6,ATGTTTACATATTAGGGTACATAATAAATTGCATAT [XGTACX_site6712],6.99
7,CATGTATTTTATATTACACACTAATATTATATATAT [CACACA_site1508],7.51
8,GAATGTATAAAATGAACACACGCCAAATTAAATGAA [CACACA_site3044],6.9
9,AATAAACAAATATGTACACACATATACCTATAAATA [CACACA_site7358],7.03
10,CCAACATATATTATCACACACATATATATATATATA [CACACA_site2016],9.6
11,ATATTAGATTAATTTACACACAGAAAATGAGATTTT [CACACA_site541],6.72
12,TAGAGTATATATAAATGTACATATTTTATGCTAATT [XGTACX_site7821],7.14
13,AAAAAATTAAATAATTACAAAAAAATAAAATAAAAA [GTGCAC_negctrl_site638],6.54
14,TTATATATTAATAGTAGTACTATATTGAATCACCCC [XGTACX_site2868],7.46
15,AGTTTATAGTGATATTGTACATATATATATATATAT [XGTACX_site572],9.24
16,TTATTTTTGTTTTGAAGTACAAAAAAATATATTCTT [XGTACX_site6416],7.01
17,AAAATTTATATAAGCACACAAATATATATTTATATC [CACACA_site3291],6.84
18,TATTTATACTCAACTTTCTGTTATTCCAACTTTTTT [XGTACX_negctrl_site410],6.87
19,ACATAAGAACATATTTGTACGTATATAAATTAAATA [XGTACX_site6127],7.09
20,ACAACAAAAATAAGCACACACAAATATACATACATA [CACACA_site7664],7.18
21,ATATATATATATGTGTGTACATATATGTGGATGGAT [XGTACX_site6240],9.23
22,AGGTAGAAAAAAGACACACACATTATGTATATATAT [CACACA_site377],7.6
23,TTATAGGATCAAGCGCGTACATATCTTTATAAAAGA [XGTACX_site5775],6.83
24,ATATACAAATATATATATATATATATATATATATAT [CACACA_negctrl_site886],9.65
